Reference: a compilation of properties of binary mixtures (doi:10.1016/j.molliq.2018.07.079)
Some of these densities may be calculated back from excess volumes.

Experiment: xn = mol fraction of the nth substance listed
Conditions: 100 kPa

CCCC[n+]1ccn(C)c1.N#C[N-]C#N + CC1COC(=O)O1
mass density [kg/m3]
Conditions | x1 = 0.0503 | x1 = 0.101 | x1 = 0.2003 | x1 = 0.2996 | x1 = 0.5007 | x1 = 0.5994 | x1 = 0.7946 | x1 = 0.8989
293.15 K | – | 1179.1 | 1157.5 | – | – | 1097.7 | 1078.5 | 1069.9
298.15 K | 1186.6 | – | 1153.2 | – | 1105.7 | 1094.2 | 1074.9 | 1066.5
303.15 K | 1181.5 | 1169.6 | 1148.8 | 1130.9 | 1102 | 1090.5 | – | –
308.15 K | – | 1164.9 | 1144.4 | – | 1098.3 | 1087 | – | 1060.1
313.15 K | – | 1160.1 | 1140.1 | 1122.8 | 1094.7 | – | 1065.1 | –
